In patent publication US7419799 (GENETECH, dated 2008):

Target: T1, human CD4 (human, UniProt P01730)
T1 construct: whole, on cells
Assay: immunofluorescence on transfected COS7 cells, anti-human Fc detection
Method: To determine if the ECD of PRO20080 can interact with a wild type PRO20080 on the cell surface, COS7 cells were transfected with wild type PRO20080 or human CD4, which contains an Ig domain, for use as a control. Forty-eight hours after transfection, the transfected cells washed and incubated with 5 µg/ml purified PRO20080 ECD-Fc fusion protein plus 5% normal goat serum. The treated cells were washed and fixed in 4% paraformadehyde for 15 minutes and then probed with a biotinlyated goat anti-human Fc antibody (Jackson Immunoreseach) at a dilution of 1:400. After a 30 minute incubation period, the fixed cells were washed and subsequently probed with a 1:400 dilution of Cy3-conjugated streptavidin label (Jackson Immunoresearch) for detection.

binding result: no binding (tested: 5 µg/ml)
B1: PRO20080 ECD-Fc fusion protein (Fc fusion, human)
chain: CFGPGNVVSQSSLTPLMVNGILGESVTLPLEFPAGEKVNFITWLFNETSLAFIVPHETKSPEIHVTNPKQGKRLNFTQSYSLQLSNLKMEDTGSYRAQISTKTSAKLSSYTLRILRQLRNIQVTNHSQLFQNMTCELHLTCSVEDADDNVSFRWEALGNTLSSQPNLTVSWDPRISSEQDYTCIAENAVSNLSFSVSAQKLCEDVKIQYTDTKMIL[omitted - human IgG1 Fc]
notes: domain: Fc; also called PRO20080-Fc fusion protein; PRO20080-Fc
